Assay in all cases: split reporter; BiFC (cYFP and nYFP fusions, 35S promoter) in Arabidopsis leaf protoplasts, confocal microscopy
In one assay the target is T1, AGB1-nYFP (Arabidopsis) (UniProt P49177).
T1 sequence: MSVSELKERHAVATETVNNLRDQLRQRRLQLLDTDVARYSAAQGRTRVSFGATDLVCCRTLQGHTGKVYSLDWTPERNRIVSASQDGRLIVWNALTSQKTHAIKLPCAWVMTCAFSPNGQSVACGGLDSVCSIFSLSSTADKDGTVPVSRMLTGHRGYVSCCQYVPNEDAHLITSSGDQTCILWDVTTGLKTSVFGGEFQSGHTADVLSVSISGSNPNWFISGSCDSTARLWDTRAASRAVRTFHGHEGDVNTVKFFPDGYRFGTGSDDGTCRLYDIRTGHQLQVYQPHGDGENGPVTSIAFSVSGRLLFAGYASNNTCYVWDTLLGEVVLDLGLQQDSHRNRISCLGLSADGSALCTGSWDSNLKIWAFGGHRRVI

For a further assay, the target named is CaM1-nYFP (Arabidopsis) (UniProt P0DH95).
The target in the next assay is T2, PMS1-nYFP (Arabidopsis) (UniProt Q941I6).
T2 sequence: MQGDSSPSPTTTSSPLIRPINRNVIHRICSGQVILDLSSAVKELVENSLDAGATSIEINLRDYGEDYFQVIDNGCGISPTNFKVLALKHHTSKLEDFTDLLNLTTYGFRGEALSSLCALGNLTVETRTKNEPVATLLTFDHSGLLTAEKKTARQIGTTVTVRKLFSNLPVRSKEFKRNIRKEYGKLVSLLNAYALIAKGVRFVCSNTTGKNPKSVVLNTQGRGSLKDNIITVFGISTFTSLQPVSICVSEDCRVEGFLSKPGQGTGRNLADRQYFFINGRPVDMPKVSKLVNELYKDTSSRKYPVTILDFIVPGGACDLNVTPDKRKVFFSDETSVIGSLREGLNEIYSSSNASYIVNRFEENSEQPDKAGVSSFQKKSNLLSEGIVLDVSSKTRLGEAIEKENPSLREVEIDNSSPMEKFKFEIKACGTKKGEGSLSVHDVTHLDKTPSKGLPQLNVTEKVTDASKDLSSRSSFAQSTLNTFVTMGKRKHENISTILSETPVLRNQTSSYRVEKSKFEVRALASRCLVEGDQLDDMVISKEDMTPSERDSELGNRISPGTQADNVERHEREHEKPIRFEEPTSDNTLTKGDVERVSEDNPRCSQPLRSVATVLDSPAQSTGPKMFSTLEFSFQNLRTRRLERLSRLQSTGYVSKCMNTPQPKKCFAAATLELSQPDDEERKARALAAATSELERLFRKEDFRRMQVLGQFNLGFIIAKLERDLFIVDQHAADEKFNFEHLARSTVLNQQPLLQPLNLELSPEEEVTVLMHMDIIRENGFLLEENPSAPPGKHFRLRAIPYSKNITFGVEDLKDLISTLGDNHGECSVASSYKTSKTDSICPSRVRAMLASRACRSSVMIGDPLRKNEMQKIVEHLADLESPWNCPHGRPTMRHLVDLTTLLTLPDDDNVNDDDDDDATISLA

Results are given in words; binding and its absence hold for the method and conditions named. In cells and extracts the contact can be indirect. Some entries that bind do so weakly or less than the wild type. Where a sequence is shown, tags or fusion partners need not be part of it.

B1: ZAR1-cYFP (receptor, UniProt Q9ZU46 21-716)
chain: LNDEGFALLTFKQSVHDDPTGSLNNWNSSDENACSWNGVTCKELRVVSLSIPRKNLYGSLPSSLGFLSSLRHLNLRSNRFYGSLPIQLFHLQGLQSLVLYGNSFDGSLSEEIGKLKLLQTLDLSQNLFNGSLPLSILQCNRLKTLDVSRNNLSGPLPDGFGSAFVSLEKLDLAFNQFNGSIPSDIGNLSNLQGTADFSHNHFTGSIPPALGDLPEKVYIDLTFNNLSGPIPQTGALMNRGPTAFIGNTGLCGPPLKDLCQGYQLGLNASYPFIPSNNPPEDSDSTNSETKQKSSGLSKSAVIAIVLCDVFGICLVGLLFTYCYSKFCACNRENQFGVEKESKKRASECLCFRKDESETPSENVEHCDIVPLDAQVAFNLEELLKASAFVLGKSGIGIVYKVVLENGLTLAVRRLGEGGSQRFKEFQTEVEAIGKLKHPNIASLRAYYWSVDEKLLIYDYVSNGNLATALHGKPGMMTIAPLTWSERLRIMKGIATGLVYLHEFSPKKYVHGDLKPSNILIGQDMEPKISDFGLARLANIAGGSSPTIQSNRIIQTDQQPQERQQHHHKSVSSEFTAHSSSGSYYQAPETLKMVKPSQKWDVYSYGIILLELIAGRSPAVEVGTSEMDLVRWVQVCIEEKKPLCDVLDPCLAPEAETEDEIVAVLKIAISCVNSSPEKRPTMRHVSDTLDRLPVAGD
For B1, the binding entry with AGB1-nYFP (Arabidopsis) is recorded as “binds”; with CaM1-nYFP (Arabidopsis), “binds”; with PMS1-nYFP (Arabidopsis) it was “no binding”.

(Values after article PMC4807781.)
